We go through 81 molecules from publication PMC12040169 (PLOS Biology, 2025).

Some of the results follow.

The subject of this test is T1, C. trachomatis L2/434/Bu expressing GFP (CTL2-GFP).
T1 construct: L2/434/Bu GFP intracellular growth in HeLa cells
Further details: species or system HeLa; C. trachomatis total inclusion area by high-content imaging, normalised to DMSO. The note with it: total inclusion area; 28.5 h, 10 µM; inhibitor. Put shortly: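 Post-fluorescence-read fixation, DNA staining with Hoechst and high-content imaging; GFP inclusion area and number per well, and nuclei counts, used as proxies for bacterial growth and host viability.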
In the case of `O=C(O)c1cccc(N2C(=O)c3cccc4c(Cl)ccc(c34)C2=O)c1` [CBK299836], the “% of control remaining” value turned out to be 78.8769.

On to `COCCCNC(=O)C1CCN(c2nc3c(-c4cccc(C)c4)csc3c(=O)[nH]2)CC1` [CBK215630], for which the “% of control remaining” value is recorded as 129.947.

`CCCNC(=O)C1(Cc2ccccc2-c2ccccc2)CCN(C(=O)c2ccccc2)CC1` [CBK286275]: the “% of control remaining” value was 127.66.

Take `c1ccc(Oc2ccc(Nc3ccc(-c4cccc5cccnc45)cn3)cc2)cc1` [CBK037643]: the “% of control remaining” value came to 89.9622.

With `NCCCNc1ccc(-c2ccco2)cn1` [CBK036911], the “% of control remaining” value was determined as 119.423.

Consider `CCc1c[nH]c(SCC(=O)c2cc(C)n(C3CCS(=O)(=O)C3)c2C)n1` (stereo not drawn) [CBK306486], for which the “% of control remaining” value was found to be 61.0498.

Consider `CC(C)n1nccc1C(=O)NC1CCN(Cc2cccc(F)c2)CC1` [CBK282596], for which the “% of control remaining” value turned out to be 104.634.

For the molecule `CS(=O)(=O)CCC(C(=O)O)N1C(=O)c2ccc(C(=O)O)cc2C1=O` (stereo not drawn) [CBK265719], the “% of control remaining” value was 123.836.

Consider `CCOc1ccc2nc(NC(=O)c3nc(SCc4ccccc4)ncc3Cl)sc2c1` [CBK269109], for which the “% of control remaining” value is listed as 105.296.

On to `COc1cc2c(cc1OC)C(CCCC#N)=[N+](C)C(C)(C)C2` [CBK008807I], for which the “% of control remaining” value came to 51.9262.

For the molecule `O=C(NCc1nc(-c2ccccc2)no1)C(c1cccs1)c1cccs1` [CBK286340], the “% of control remaining” value came to 106.748.

Consider `O=C(NC(c1ccc(Cl)cc1)c1cnccn1)C1CCN(C(=O)c2ccccc2)CC1` (stereo not drawn) [CBK059634], for which the “% of control remaining” value amounted to 107.505.

For the molecule `c1cc(-c2nccnc2Oc2ccc3c(c2)OCO3)ccn1` [CBK106726], the “% of control remaining” value was found to be 101.312.

Consider `CC1CCc2nn(CCNC(=O)c3ccco3)c(=O)cc2C1` (stereo not drawn) [CBK284481], for which the “% of control remaining” value came to 103.521.

Take `CC(C)CNc1nc(-c2cccc(N(C)C)c2)cnc1N` [CBK063870]: the “% of control remaining” value came to 102.064.

Turning to `Cc1ccc(Cl)c(OC(C)C(=O)N(CCCO)Cc2ccncc2)c1` (stereo not drawn) [CBK305432], the “% of control remaining” value was found to be 85.6038.

`O=C(O)C1CCCN(C(=O)CCc2c[nH]c3ccccc23)C1` (stereo not drawn) [CBK286925]: the “% of control remaining” value worked out at 93.0906.

As to `CCn1c2ccccc2c2cc(CN3CCN(Cc4c[nH]c5ccccc45)CC3)ccc21` [CBK263167], the “% of control remaining” value is on record as 63.9803.

Regarding `Cc1ncncc1C(=O)NCC1(c2ccccc2F)CCCC1` [CBK281411], the “% of control remaining” value was found to be 79.7542.

In the case of `O=c1c2c3c(sc2n2c(S)nnc2n1Cc1ccccc1)CN(Cc1ccccc1)CC3` [CBK262973], the “% of control remaining” value is 112.65.

For `c1ccc(CSc2nnc(COc3cccc4ccccc34)n2Cc2ccccc2)cc1` [CBK267215], the “% of control remaining” value was 102.085.

Turning to `O=C(CNC(=O)c1ccccc1F)N/N=C/c1cccs1` [CBK261953], the “% of control remaining” value worked out at 75.3917.

As for `CC(=O)Nc1ccc(CCNC(=O)NCc2nc(C3CC3)no2)cc1` [CBK306221], the “% of control remaining” value came out at 89.0719.

On to `C=CCNS(=O)(=O)c1ccc(NC(=O)Cc2cccc3ccccc23)cc1` [CBK269379], for which the “% of control remaining” value was 91.9187.

Turning to `COc1cccc(NC(=O)N[C@H]2[C@H](O)[C@@H](N3CCOCC3)[C@@H]3OC[C@H]2O3)c1` [CBK288821], the “% of control remaining” value is reported as 102.374.

With `O=C(NCCCN1CCOCC1)c1ccccc1Br` [CBK262602C], the “% of control remaining” value turned out to be 97.7332.

Take `CCOC(=O)CNc1nc(OC)cc(OC)n1` [CBK093392]: the “% of control remaining” value came to 89.218.

Turning to `Cc1cccnc1C1(O)CCN(C(=O)Cc2ccccc2F)CC1` [CBK283617], the “% of control remaining” value was found to be 117.758.

As for `Cc1ccccc1N1CCC(CNC(=O)CCn2nc(C)c(C)c2C)C1` (stereo not drawn) [CBK307465], the “% of control remaining” value was 105.053.

Regarding `CC(CC(=O)O)CC(=O)Nc1ccccc1C(=O)O` (stereo not drawn) [CBK265671], the “% of control remaining” value amounted to 117.278.

For `CCCCC(c1cccnc1)N(C)C(=O)c1cc(C)c(CC)n(C)c1=O` (stereo not drawn) [CBK306999], the “% of control remaining” value is listed as 89.0968.

Consider `CNC1CCN(S(=O)(=O)c2sc3ccc(C(C)C)cc3c2C)C1` (stereo not drawn) [CBK170067], for which the “% of control remaining” value was determined as 46.9509.

Regarding `COC(=O)c1ccc2c(=O)n(CC(C)O)c(SC3CCOC3=O)nc2c1` (stereo not drawn) [CBK304997], the “% of control remaining” value turned out to be 36.4695.

In the case of `O=C(NCCc1cccs1)Nc1cc(C(F)(F)F)cc(C(F)(F)F)c1` [CBK043718], the “% of control remaining” value stood at 68.8518.

Regarding `COc1ccc([N+](=O)[O-])cc1NC(=O)c1ccc(-c2cc3ccccc3oc2=O)cc1` [CBK267325], the “% of control remaining” value is given as 99.3544.

For the molecule `O=c1[nH]c2ncc(-c3cccnc3)nc2n1CCN1CCOCC1` [CBK065070], the “% of control remaining” value was determined as 79.7267.

Turning to `CCn1cc(C(=O)N2CCOC(C(=O)O)C2)c(=O)c2ccc(C)nc21` (stereo not drawn) [CBK307165], the “% of control remaining” value turned out to be 64.5964.

As for `O=C(CN1CCCC1Cn1cccn1)N1CCCc2ccccc21` (stereo not drawn) [CBK281971], the “% of control remaining” value is recorded as 103.73.

As to `Cc1cc(Cl)c(S(=O)(=O)Nc2ccc(C#N)cc2)cc1OCC(N)=O` [CBK266560], the “% of control remaining” value came to 96.8363.

As to `Cc1ccc(-n2c(=O)[nH]cc(C(=O)Nc3ccc(C)c(F)c3)c2=O)cc1C` [CBK287550], the “% of control remaining” value was found to be 84.6706.

With `COc1ccc(CNC(=O)c2sc3nc4c(c(C(F)(F)F)c3c2N)CCC4)cc1OC` [CBK074568], the “% of control remaining” value was 86.6557.

As to `Cc1cccc(C)c1NC(=O)c1nccnc1C(=O)O` [CBK260915], the “% of control remaining” value worked out at 94.5236.

Take `O=C(CSc1ccc2nnc(-c3ccccc3)n2n1)NCc1ccco1` [CBK287514]: the “% of control remaining” value is given as 117.33.

`O=[N+]([O-])c1ccc(Sc2cccc(F)c2)nc1` [CBK002905]: the “% of control remaining” value amounted to 86.7627.

With `COc1cc(CNc2ccccc2Cl)ccc1OCC(=O)O` [CBK287045], the “% of control remaining” value amounted to 107.333.

As to `c1ccc(OCCN2CCC(Oc3cncc(OCCN4CCOCC4)n3)C2)cc1` (stereo not drawn) [CBK084499], the “% of control remaining” value came out at 78.8736.

On to `COc1ccc(C(=O)C2=C(O)C(=O)N(Cc3cccnc3)C2c2cccc(OC)c2OC)cc1C` (stereo not drawn) [CBK264906], for which the “% of control remaining” value came out at 113.19.

Regarding `COc1ccc(CCNC(=S)NN2CCN(C)CC2)cc1OC` [CBK266884], the “% of control remaining” value was 95.2387.

Turning to `O=C1NC(=O)C(CCCCN2CCCc3ccccc32)N1` (stereo not drawn) [CBK143965], the “% of control remaining” value was found to be 97.9631.

`O=C1N[C@@H]2CCN(C(=O)C3CC3)[C@@H]2C(=O)N1c1ccc(F)cc1` [CBK289324]: the “% of control remaining” value came out at 111.387.

Take `O=C(Nc1ccc2ncccc2c1)c1cccnc1` [CBK159820]: the “% of control remaining” value was 91.31.

With `Cc1cc(C)n(C2CCN(Cc3ccc(-n4ccnc4C)cc3)CC2)n1` [CBK281976], the “% of control remaining” value is 98.3152.

Turning to `NC(=O)c1[nH]nc(C2OC(CO)C(O)C2O)c1O` (stereo not drawn) [CBK201236], the “% of control remaining” value worked out at 42.592.

As for `Cc1nn(Cc2ccc(C(=O)N3CCN(Cc4ccccc4)CC3)o2)c(C)c1Br` [CBK265796C], the “% of control remaining” value is listed as 96.5751.

Consider `Cc1ccc(C(=O)NCC2COc3ccccc3O2)c(N2CCOCC2)n1` (stereo not drawn) [CBK076519], for which the “% of control remaining” value came out at 97.9622.

Regarding `CCn1cc(NCc2ccccc2Cl)c(C(=O)O)n1` [CBK286807], the “% of control remaining” value was found to be 95.3504.

Consider `CCn1cc(C(=O)N2CCCC2c2nc3ccccc3[nH]2)c(C)n1` (stereo not drawn) [CBK283777], for which the “% of control remaining” value worked out at 98.8511.

As to `CC(C)[C@H](CO)n1c(=O)[nH]c2ncc(-c3cccc4ccccc34)nc21` [CBK064985], the “% of control remaining” value worked out at 120.357.

Consider `COc1cc(Nc2cncc(-c3ccc(O)cc3)n2)c(Cl)cc1C(=O)NCCCN(C)C` [CBK122651], for which the “% of control remaining” value stood at 72.7985.

On to `Cn1c(=O)c2c(ncn2CC(=O)Nc2ccc3ccccc3c2)n(C)c1=O` [CBK133722], for which the “% of control remaining” value stood at 67.9287.

As for `O=C1CCCN1CCC(=O)N1CCCC1c1nc2ccccc2[nH]1` (stereo not drawn) [CBK283981], the “% of control remaining” value was found to be 74.15.

For `Fc1ccc(Sc2ccc(C(F)(F)F)cn2)cc1` [CBK115235], the “% of control remaining” value is reported as 139.255.

As for `Cc1cc(CNC(=O)c2cc3ccccc3oc2=O)c2ccccc2n1` [CBK269834], the “% of control remaining” value was found to be 101.426.

Regarding `O=c1n(C(c2ccccc2)c2ccccc2)ccn1S(=O)(=O)c1ccc2ccccc2c1` [CBK106623], the “% of control remaining” value was found to be 80.1876.

Take `O=C(C1=C(O)C(=O)N(CCN2CCOCC2)C1c1cccc(Br)c1)c1ccco1` (stereo not drawn) [CBK264490]: the “% of control remaining” value was determined as 113.596.

Regarding `Cc1nc(C)n(CC(=O)NCCCc2ccc(Cl)cc2)n1` [CBK281559], the “% of control remaining” value is recorded as 79.7488.

`c1ccc(CN(Cc2ccccc2)Cn2c3ccccc3c3ccccc32)cc1` [CBK263575]: the “% of control remaining” value is 103.661.

On to `O=C(O)C1CSC(c2cccc(Cl)c2Cl)N1` (stereo not drawn) [CBK077526], for which the “% of control remaining” value is 80.0242.

In the case of `Nc1ncnc2nc(-c3ccncc3)nn12` [CBK288550], the “% of control remaining” value came out at 118.921.

As for `CCC(=O)N1CCN(CCCC(=O)c2ccc(F)cc2)CC1` [CBK025017C], the “% of control remaining” value was found to be 95.2918.

For `O=C(CN1CCN(C(=O)C2COc3ccccc3O2)CC1)Nc1ccc2c(c1)OCCO2` (stereo not drawn) [CBK074777], the “% of control remaining” value is on record as 86.8392.

`O=C1NC2(CCN(C(=O)Cc3ccsc3)CC2)Nc2ccccc21` [CBK283963]: the “% of control remaining” value is 82.8105.

For `Cc1cc(COc2nccnc2N2CCN(CC(N)=O)CC2)no1` [CBK084192], the “% of control remaining” value turned out to be 93.0683.

Consider `COCC(=O)NC1CC(C)(C)Cc2c1cnn2-c1ccc(C)cc1` (stereo not drawn) [CBK282866], for which the “% of control remaining” value was 74.1772.

On to `O=C(CN1CCN(C/C=C/c2ccccc2)CC1)Nc1ccc(C2CCCCC2)cc1` [CBK074497], for which the “% of control remaining” value is recorded as 82.503.

Regarding `CN1CCC2(CC1)SC(=O)Nc1ccc(Br)cc12` [CBK017821B], the “% of control remaining” value was 90.7429.

On to `Clc1ccc(CNCc2cccnc2)cc1` [CBK086257C], for which the “% of control remaining” value was 93.4362.

Take `COc1ccc2[nH]c3c(c2c1)CCNC31CCCN(Cc2ccc(OC(F)(F)F)cc2)C1` (stereo not drawn) [CBK039387]: the “% of control remaining” value came to 81.0984.

With `CS(=O)(=O)c1nc(-c2ccccc2)ns1` [CBK017338], the “% of control remaining” value is recorded as 43.5288.

In the case of `Cc1ccc(C2(C(=O)NCCn3ccnc3C)CCOCC2)cc1` [CBK281858], the “% of control remaining” value is on record as 104.352.

Turning to `O=C(O)C1(NCc2ccc(F)cc2)CCCCC1` [CBK287270], the “% of control remaining” value was determined as 129.95.
